Results as given in PubChem BioAssay (Tox21).
Where “and” joins values, the source holds several entries; their conditions need not be identical. Identical values can stand only once. This list was built around the results that the source calls inconclusive (neither active nor inactive); the mix of calls is not that of the screen. Where the call is inconclusive, the potency comes from a doubtful curve fit. Calls of active or inactive are those of the source. Calls come from the whole dose curve; as a rule, active = well fitted cell-killing curve with a large enough effect in the repeat runs; inconclusive = weak or mixed curves, or effect the other way; inactive = no such curve, though single readings can be large or run the other way.

experiment: qHTS assay for identifying genotoxic compounds that show differential cytotoxicity against isogenic chicken DT40 cell lines with known DNA damage response pathways - Rev3 mutant cell line (AID 743014); conditions: chicken DT40 Rev3-/- viability, CellTiter-Glo, 40 h; series mostly up to 68.4 µM; note: nearly all actives have a fitted effect of over 55% in size
Potency is the fitted concentration of half-maximal effect; tags give direction and shape of the fitted curve.

Compound | Potency
NCc1ccccc1Sc1ccccc1CO | active: 5.96 µM
CCCCCCCCCOS(=O)(=O)O | inactive
NCC[C@H](O)C(=O)N[C@@H]1C[C@H](N)[C@@H](O[C@H]2O[C@H](CN)[C@@H](O)[C@H](O)[C@H]2O)[C@H](O)[C@H]1O[C@H]1O[C@H](CO)[C@@H](O)[C@H](N)[C@H]1O | inactive
CC/C=C\CCCCO | inconclusive: 68.6 µM [cytotoxic, single point]
CN1[C@@H]2CC[C@H]1CC(OC(=O)C(O)c1ccccc1)C2 (some centres not stated) | inconclusive: 23.7 µM [cytotoxic, partial curve, poor fit]
O=C1C(N(CO)C(=O)NCO)N(CO)C(=O)N1CO (configuration not stated) | inactive and inconclusive: 42.9 µM [cytotoxic, single point]
C/C=C1\C(=O)C[C@H]2[C@@H]3CCC4=CC(=O)CC[C@]4(C)[C@H]3CC[C@]12C | active: 10.7 µM
